# Source: patent publication US6420345 (dated 2002)
# B1: W3 (other)
# chain: [about 200 residues not shown]GGGGSGGGGSGGGGSEFCGRACARRLRRGESMQRAAGSSMEPSADWLATAAARGRVEEVRALLEAVALPNAPNSYGRRPIQVMMMGSARVAELLLLHGAEPNCADPATLTRPVHDAAREGFLDTLVVLHRAGARLDVRDAWGRLPVDLAEELGHRDVARYLRAAAGGTRGSNHARIDAAEGPSDIPD
# B2: W7 (other)
# chain: MGYPYDVPDYASLERMDARQA[about 80 residues not shown]QDVSGSRPAAPLIGAPANSEDTHLVDPKTDPSDSQTGLAEQCAGIRKRPATDDSSTQNKRANRTEENVSDGGGGGSGGGGSGGGGSVEDPAAGSSMEPSADWLATAAARGRVEEVRALLEAGALPNAPNSYGRRPIQVMMMGSARVAELLLLHGAEPNCADPATLTRPVHDAAREGFLDTLVVLHRAGARLDVRDAWGLPVDLAEELGHRDVARYLRAAAGGTRGSNHARIDAAEGPSDIPD
# B3: W5 (protein)
# chain: MGYPYDVPDYADPAAGSSMEPSADWLATAAARGRVEEVRALLEAGALPNAPNSYGRRPIQVMMMGSARVAELLLLHGAEPNCADPATLTRPVHDAAREGFLDTLVVLHRAGARLDVRDAWGRLPVDLAEELGHRDVARYLRAAAGGTRGSNHARIDAAEGPSDIPDGGGGSGGGGSGGGGSV[about 200 residues not shown]
# Biological target: CDC2/cyclin B complex (UniProt P06493; P14635)
# Assay: in vitro kinase assay
# Chain of UniProt P06493 (P06493 whole entry, chain 1 of 2): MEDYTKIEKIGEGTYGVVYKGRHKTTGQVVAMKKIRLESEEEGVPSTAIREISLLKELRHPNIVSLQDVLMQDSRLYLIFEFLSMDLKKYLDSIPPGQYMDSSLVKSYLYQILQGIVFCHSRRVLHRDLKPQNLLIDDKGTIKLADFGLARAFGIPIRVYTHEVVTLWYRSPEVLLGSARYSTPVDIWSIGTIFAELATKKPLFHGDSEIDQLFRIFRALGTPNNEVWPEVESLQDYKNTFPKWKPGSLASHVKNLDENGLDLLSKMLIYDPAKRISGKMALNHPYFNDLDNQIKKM
# Chain of UniProt P06493 (P14635 whole entry, chain 2 of 2, further chain): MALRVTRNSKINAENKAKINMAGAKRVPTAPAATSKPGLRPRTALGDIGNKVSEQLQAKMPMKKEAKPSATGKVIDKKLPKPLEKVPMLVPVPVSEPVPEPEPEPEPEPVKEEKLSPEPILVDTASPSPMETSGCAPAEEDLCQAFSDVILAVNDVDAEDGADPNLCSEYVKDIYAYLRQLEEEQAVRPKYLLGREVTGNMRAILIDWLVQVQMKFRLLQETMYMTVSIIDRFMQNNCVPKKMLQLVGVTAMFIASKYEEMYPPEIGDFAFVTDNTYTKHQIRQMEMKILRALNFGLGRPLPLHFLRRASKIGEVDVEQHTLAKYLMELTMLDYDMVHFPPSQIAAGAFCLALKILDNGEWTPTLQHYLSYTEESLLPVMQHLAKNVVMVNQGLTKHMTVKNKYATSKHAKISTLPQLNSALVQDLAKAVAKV
row,Binder,IC50 [nM]
1,B1,18
2,B2,9.2
3,B3,18

# Biological target: CDK4/cyclin D1 complex (UniProt P11802 1-303; P24385)
# Assay: in vitro kinase assay
# Chain of UniProt P11802 (P11802 whole entry, chain 1 of 2): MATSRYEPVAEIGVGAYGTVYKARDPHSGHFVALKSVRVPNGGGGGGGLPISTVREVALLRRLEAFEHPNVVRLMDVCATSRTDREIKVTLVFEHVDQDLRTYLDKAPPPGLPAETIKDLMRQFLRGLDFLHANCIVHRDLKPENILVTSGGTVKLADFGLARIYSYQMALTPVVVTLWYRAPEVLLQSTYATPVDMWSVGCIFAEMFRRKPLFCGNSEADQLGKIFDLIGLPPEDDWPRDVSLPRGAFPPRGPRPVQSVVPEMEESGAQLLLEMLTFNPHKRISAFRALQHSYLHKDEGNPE
# Chain of UniProt P11802 (P24385 whole entry, chain 2 of 2, further chain): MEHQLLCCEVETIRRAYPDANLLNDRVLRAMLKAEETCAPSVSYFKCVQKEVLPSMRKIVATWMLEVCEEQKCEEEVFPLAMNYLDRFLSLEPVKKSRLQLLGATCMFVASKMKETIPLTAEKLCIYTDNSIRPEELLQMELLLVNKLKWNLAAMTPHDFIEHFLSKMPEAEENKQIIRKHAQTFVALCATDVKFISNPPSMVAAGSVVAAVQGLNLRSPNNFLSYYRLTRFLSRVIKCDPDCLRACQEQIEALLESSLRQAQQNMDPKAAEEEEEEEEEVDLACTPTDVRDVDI
row,Binder,IC50 [nM]
1,B1,17
2,B2,16
3,B3,44

# Biological target: CDK2/cyclin E complex (UniProt P24941; P24864)
# Assay: in vitro kinase assay
row,Binder,IC50 [nM]
1,B1,3
2,B2,2.6
3,B3,11
